# Reference: the supplement of paper PMC3334620
# Whole data set: some 33,000 sequences, median “E-score (-0.5 to 0.5)” near -0.056, cut for the highest 2% near 0.38. The list shows a part of the results.
# Target: Stb4 (UniProt P50104)
# Assay: PBM E-score (8-mer binding enrichment) (E-score (-0.5 to 0.5)); higher = stronger / more preferred TF binding; most listed sequences are background and not binding sites
# Settings: protein concentration: 200 nM; construct: GST-DNA-binding domain
# Protocol: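 Universal 'all 10-mer' protein binding microarrays (Agilent AMADID 015681) probed with GST-tagged S. cerevisiae TFs (full-length or DBD) made by in vitro transcription/translation (PURExpress), about 100-200 nM. Bound TF was detected with fluorescent anti-GST. Each ungapped 8-mer (which stands for itself and its reverse complement) is scored by the PBM enrichment score (E-score), a modified Wilcoxon-Mann-Whitney statistic from -0.5 to +0.5, computed with the Universal PBM Analysis Suite. Scale: above 0.35 generally sequence-specific binding.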
row,Sequence,PBM E-score
1,GCCCAACA,-0.183
2,CAGTACAG,-0.0544
3,CAGGCTTC,0.0742
4,AGGGTACG,-0.0957
5,ATCCTAGA,-0.00757
6,ACAGTAGA,-0.113
7,CAGTAGGG,-0.198
8,ACGTCCCC,-0.0302
9,AGTGTGAC,-0.327
10,ATAGTCGG,0.203
11,GGCGCGGA,0.232
12,CGGCTCAC,0.231
13,AATGGAAA,0.0387
14,CCGGGGAA,0.24
15,CGCGAGCC,0.143
16,GCAGAGAA,-0.17
17,GCCGGTCC,0.233
18,GATTATAA,0.205
19,ACTGGTCA,-0.0552
20,ATTGAGAG,-0.15
21,AGCGGTAC,-0.00183
22,AAAGGATA,-0.0207
23,AAGGGCAT,-0.294
24,GTCTCAAC,-0.00508
25,AGTCCGAT,0.236

row,Sequence,PBM E-score
1,AATCACAA,-0.0604
2,ACTTGCTG,-0.29
3,ACGGCCTC,-0.12
4,CTCATTAC,-0.0922
5,TCCGCCAA,0.233
6,GTTTACAA,0.078
7,GGCATGCA,-0.236
8,AACCCTAC,-0.203
9,ATTATACG,0.138
10,ATGGACCC,-0.0539
11,GGCTCGTA,-0.0188
12,CCCACCCC,0.332
13,AGCCTCTA,-0.184
14,CAGAGTGC,-0.108
15,AGATATTC,-0.124
16,AATAAACG,-0.029
17,ACATCTTG,-0.193
18,AGGAGCAC,-0.073
19,CATGTGTA,0.015
20,AGGCCAAG,-0.0945
21,AACAGGGA,0.0167
22,CGAATGCA,-0.203
23,AGTCCAGA,-0.048
24,AGGAGCTA,-0.112
25,CGGAGATA,0.373

row,Sequence,PBM E-score
1,ATCCCGTA,0.182
2,AAGGGATC,-0.0355
3,CAGCACCG,0.137
4,ACAAATAC,0.0453
5,ATCGGGAC,0.284
6,CGTCTCCA,-0.0515
7,TCCTCTAA,-0.171
8,TAGGGTGA,-0.0626
9,CCAGACAA,-0.0506
10,TAACCCGA,0.385
11,TACTACGA,-0.209
12,CTACCCTA,-0.244
13,CCGAGTAA,0.345
14,CTGAAGAC,0.0427
15,GACTGCAC,-0.182
16,ACGACTTA,0.00412
17,GGTCACAC,-0.14
18,ACGAAATC,-0.0845
19,CAATCGCC,-0.00387
20,AGCGATCG,-0.13
21,AATTCAAT,-0.00516
22,ATCAGCAC,-0.139
23,GAACATGC,-0.129
24,AGTCGAAC,-0.0182
25,CGCAAATA,-0.0524

row,Sequence,PBM E-score
1,CCCTCACC,-0.107
2,GATTTCAC,-0.0278
3,GGGCGTCA,-0.00101
4,GCCGCCAA,-0.0226
5,CCGCGTCG,0.247
6,AAGAGGGG,-0.0851
7,GCTTTAAA,-0.133
8,GATAATAC,0.0339
9,AATGTAAG,0.00441
10,ATACATAT,0.0739
11,ACGCAGGA,-0.261
12,ACCCAATA,-0.151
13,CAACACAA,-0.13
14,ATAACATG,-0.0103
15,AGCGCTGC,-0.219
16,AATGGGCT,-0.234
17,TGGGGTAA,0.0799
18,GCGCGGCC,0.112
19,ACGCCCTG,-0.00993
20,CATGCGCA,-0.144
21,CCGACGCA,0.238
22,AACCGGAA,0.377
23,AAGCAACG,-0.0601
24,ATGACTGA,-0.107
25,GAACCGCA,0.0725

row,Sequence,PBM E-score
1,AACCTAGA,-0.0131
2,AATGCTAC,0.137
3,CTAGTGGA,-0.228
4,GTCTCTTA,0.155
5,CGCATTCA,0.0585
6,GCGCCCAC,-0.106
7,AGAGGGCA,-0.289
8,ACGAAACT,-0.0155
9,CGCAGCGC,-0.036
10,ATTCGTCC,0.0896
11,ATATACGA,-0.202
12,ACATGTCT,-0.0405
13,ATAGCGAC,-0.166
14,AAAGTGAG,-0.136
15,CCGGTTAC,0.26
16,ATCAACCA,-0.201
17,CCGAGCCG,0.468
18,ATGATCAA,-0.209
19,GGTCCTAC,-0.163
20,TATTGAAA,-0.0261
21,GCTGATCA,-0.13
22,ATTGCCCG,0.183
23,ATTCTTGA,0.0217
24,CATGGCAG,-0.047
25,AGCGCTGA,0.0271

row,Sequence,PBM E-score
1,CCGTTCTA,0.124
2,CCGCAACA,0.075
3,CGCATCAG,0.137
4,ACGGGTCG,0.239
5,ATATCACC,-0.00862
6,TGAAGGAA,-0.173
7,CGCGCCAA,0.0906
8,ATTTAATG,0.156
9,AGAGCCGC,0.124
10,ACGAAGCT,-0.0648
11,ATGTAGCC,0.136
12,ACATTGGA,-0.177
13,AATGTTGA,0.0031
14,TGATAGAA,-0.223
15,GATTCTTA,-0.0637
16,AAAGGCTT,-0.2
17,AAGTGCTG,-0.266
18,CGCTATCC,0.25
19,AGGTCTAC,0.0618
20,GTATATTA,-0.252
21,ACTCATTC,0.17
22,TCTCCAAA,-0.144
23,GATTCGTA,0.0772
24,AACAACCC,0.0333
25,CTGTCCTA,-0.293

row,Sequence,PBM E-score
1,ATTCGTGC,-0.108
2,CATCGAAG,-0.192
3,AATTCTGG,-0.175
4,CGATTGCA,0.114
5,ACTCTAAG,-0.00837
6,CCCCTTAG,-0.149
7,ACTAGTCG,-0.0584
8,AAGTTGGC,-0.0893
9,ATCAGGGA,-0.232
10,GCTGTTCC,0.121
11,ATGCTATG,-0.158
12,CCGGAGAA,0.261
13,ATCTAGTA,-0.128
14,GTCCGTAA,-0.00944
15,GCCATCCA,-0.118
16,CGTGTGAC,0.0159
17,GCACTCGA,-0.053
18,ACTTATTA,-0.116
19,CATAAGCG,-0.119
20,ACCAGTTC,-0.022
21,CCTTGGCG,-0.0179
22,CGAATAGA,0.0103
23,GAGCTTAA,-0.0608
24,CCGGTACG,0.146
25,CTTCCACC,-0.0439

row,Sequence,PBM E-score
1,AGGAGTAA,-0.0603
2,CTCGACTC,-0.13
3,ACCTACAA,-0.15
4,ATGGTAAG,-0.145
5,GAAATTCC,0.149
6,TATCAGGA,-0.235
7,ACAGGTAC,-0.089
8,CAAACATC,0.142
9,AACGCGCC,0.111
10,AAATAGTT,0.0385
11,CCCATTGC,-0.194
12,GCGGACGC,-0.0766
13,CATTCTGA,-0.0339
14,GGATGGAC,0.0976
15,ACAGTTCA,-0.261
16,CGCCTCCA,-0.146
17,ATCACTGC,0.075
18,GTCTGTAA,0.0297
19,TCACTGGA,-0.161
20,GAACGATC,-0.0262
21,CCTCCCGA,0.387
22,CTACCCGC,0.273
23,CACCCTAA,-0.201
24,GCGCTCAA,-0.235
25,GCTCTGAC,-0.322

row,Sequence,PBM E-score
1,ACCACATG,-0.182
2,CCGGAACA,0.431
3,GGCCCAAC,-0.00686
4,TAAATGAA,-0.191
5,ACTTAGGC,-0.129
6,ACCCCGTC,0.167
7,CTGCCAAC,-0.1
8,AGTTAAAC,-0.202
9,AACCATGC,-0.00932
10,AAAGTCAA,0.00543
11,ACGGCCAG,-0.124
12,AGGGTTAC,-0.296
13,CGGCCCCG,0.203
14,AAATCAAT,0.0306
15,GCAGGCAA,-0.192
16,CTATCTAA,-0.0751
17,CGATGCAC,-0.141
18,AACAAGAT,0.0176
19,CAACCGCG,0.138
